The results in this text go back to US20090281042A1 (priority 2005, published 2009).

This experiment deals with HeLa lysate. The following applies: H1 lysate, Pep1 as substrate; for Reaction rate: control 119.

Read-outs that look alike come from different tables or passages of the source.

For `O=S(=O)(F)Cc1ccccc1` [PMSF], where the note is “inhibitor 2 mM”, the “% Inhibition (relative to control)” value was found to be 0% and the Reaction rate was found to be 119 RFU/min.
For the compound Aprotinin, for the setting “inhibitor 8 ug/ml”, the “% Inhibition (relative to control)” value amounted to 3.3% and the Reaction rate is given as 115 RFU/min.
